Experimental data published in PubChem BioAssay AID588549 (Broad Institute, 2011).
Among all 360,000 compounds or so, about 780 (0.22%) were called active. This list was built around the results that the source calls inconclusive (neither active nor inactive); the mix of calls is not that of the screen. No stated cut-off is given here; in the data, active means inhibition above about 8.5% (passing the limit was not always enough); inconclusive means no clear call, values can overlap the other calls.

Each compound was assayed on Mycobacterium tuberculosis FadD28 fatty-acid-AMP ligase (assay: inhibitors of FadD28 bisubstrate probe binding, primary screen, biochemical, fluorescence polarization, single point (AID 588549)). Conditions: at 12.5 µM, hits give high values.

| SMILES | inhibition |
| --- | --- |
| Cc1ccc(NC(=O)COC(=O)c2cccc(S(=O)(=O)N3CCCCCC3)c2)cc1 | inconclusive: 6.31% |
| O=C(Nc1ccc(S(=O)(=O)NC2=NCCCCC2)cc1)c1cccs1 | inactive: -0.676% |
| O=[N+]([O-])c1cc(Br)c(O)c(/C=N/Nc2nnnn2-c2cccc3ccccc23)c1 | inconclusive: 5.66% |
| CCc1cccc2c(C(=O)COC(=O)c3cccc(S(=O)(=O)N(C)C4CCCCC4)c3)c[nH]c12 | active: 21.7% |
| CN(Cc1cn(-c2ccccc2)nc1-c1ccc(F)cc1)C(=O)CCC(=O)O | inconclusive: 7.52% |
| O=C(O)c1ccc(-c2ccc(/C=C3\NC(=O)N(Cc4ccc(Cl)cc4)C3=O)o2)cc1Cl | active: 16.5% |
| COc1ccccc1OCC(=O)Nc1ccc(S(=O)(=O)N(C)c2ccccc2)cc1 | inactive: -3.32% |
| Cc1c(Cc2ccc3c(c2)OCO3)sc(NC(=O)c2ccc3ccccc3c2)c1C(N)=O | inconclusive: 3.98% |
| Nc1ncnc2c1ncn2[C@@H]1O[C@H](CNCc2ccc(OCC(=O)Nc3nccs3)cc2)[C@@H](O)[C@H]1O | inconclusive: 6.78% |
| Cc1ccc(NC(=O)CN2C(=O)N/C(=C\c3cccn3-c3cccc(C(=O)O)c3)C2=O)cc1 | inconclusive: 7.65% |
| CCOc1cc(/C=N/NC(=O)c2cccnc2)ccc1OCC(N)=O | inactive: -0.505% |
| C/C(N)=C(/C#N)C(=O)CSc1nc2ccccc2c(=O)n1Cc1ccc(C)cc1 | inactive: -5.21% |
| O=C(COC(=O)c1ccccc1)Nc1ncc([N+](=O)[O-])s1 | inconclusive: 8% |
| CCCNC(=O)C1(C)CCCN(C/C=C/c2ccccc2)C1 (stereo not given) | inactive: -4.4% |
| O=[N+]([O-])C(=C1SCCS1)C(=C(Cl)Cl)N1CCCCC1 | inconclusive: 9% |
| c1ccc(-c2cc(-c3ccccc3)on2)cc1 | inconclusive: 4.73% |
| NNC(=O)C1CCCn2c1nc1sc3c(c1c2=O)CCCC3 (stereo not given) | inconclusive: 7.78% |
| O=C(CN1C(=O)S/C(=C\c2cccs2)C1=O)Nc1ccc(O)cc1C(=O)O | inconclusive: 10.4% |
| CCOC(=O)c1ccccc1NC(=O)Cn1cnc2c(cnn2-c2ccccc2)c1=O | inactive: -1.75% |
| O=c1[nH][nH]c2cc(=O)n(-c3cccc(C(F)(F)F)c3)nc12 | inconclusive: 7.83% |
| CCn1nc(NS(=O)(=O)c2ccc([N+](=O)[O-])cc2)c2cc3cccc(C)c3nc21 | inconclusive: 7.66% |
| COc1cccc(NC(=O)CN(C)C(=O)c2ccc(S(=O)(=O)Nc3ccccc3C)cc2)c1 | inconclusive: 6.62% |

| SMILES | inhibition |
| --- | --- |
| CC1(C)CC(=O)C2=C(C1)NC1=C(C(=O)c3ccccc31)C2c1cc([N+](=O)[O-])ccc1O (stereo not given) | active: 20.7% |
| N/C(=N\N=C/c1ccc(-c2ccc(O)c(C(=O)O)c2)o1)N[N+](=O)[O-] | active: 12.3% |
| CCCc1ccc(Oc2cn[nH]c2-c2ccc(O)c(C)c2O)cc1 | inactive: -4.06% |
| Cc1ccccc1Nc1ccc([N+](=O)[O-])cn1 | inconclusive: 3.05% |
| O=C(CCC(=O)Nc1ccc(F)cc1)N/N=C/c1c[nH]c2ccccc12 | inconclusive: 4.28% |
| O=C1/C(=C\c2cc(Br)cc(Br)c2O)SC(=S)N1Cc1ccccc1 | inconclusive: 6.71% |
| COc1cc(NC(C)CCCN)c2ncccc2c1 (stereo not given) | inactive: -3.69% |
| COc1cccc(CNC(=O)CN(C)S(=O)(=O)c2cnc[nH]2)c1 | inconclusive: 7.05% |
| CC(=O)N1N=C(c2ccncc2)OC12CCCCC2 | inactive: -1% |
| COC(=O)c1c(-c2ccc(C)cc2)csc1NC(=O)C1CC=CCC1C(=O)O (stereo not given) | inconclusive: 6.17% |
| NS(=O)(=O)c1ccc(Nc2nc3ccccc3nc2NS(=O)(=O)c2cccc([N+](=O)[O-])c2)cc1 | inconclusive: 9.68% |
| CCN(CC)C(=O)c1ccc2c(c1)C1C(Cl)C(Sc3ccccc3[N+](=O)[O-])CC1C(C(=O)O)N2 (stereo not given) | active: 34.5% |
| O=C(CSc1ccc(Cl)cc1)NC1=NN(c2ccccc2)C(=O)C1 | inconclusive: 11.7% |
| CCc1ccc(CN(C)Cc2nc(Cc3cccc(C(F)(F)F)c3)no2)nc1 | inconclusive: 4.34% |
| O=c1[nH]n2c(=O)c3c([nH]c2c1N=Nc1cccc(C(F)(F)F)c1)CCCC3 | inconclusive: 9.73% |
| COc1ccc(OC)c(C2=NOC(C(=O)Nc3cccc(C(C)=O)c3)C2)c1 (stereo not given) | inconclusive: 7.68% |
| CC(C)(C)c1ccc(NC(=O)NCc2ccco2)cc1 | inconclusive: 5.44% |
| Cn1c(O)c(/C=N/NC(=O)c2cc3ccccc3cc2O)c2ccccc21 | inconclusive: 13.9% |
| Cc1ccc(OCC(=O)Nc2ccc([N+](=O)[O-])cn2)cc1C | inactive: -1.09% |
| CCn1c(SCC(=O)Nc2ccc(N3CCOCC3)cc2)nnc1-c1ccncc1 | inconclusive: 40.5% |
| Cc1ccc(C2CC(=O)NC(SCC(=O)Nc3nccs3)=C2C#N)cc1 (stereo not given) | active: 12.5% |
| Cc1c(O)c2c3c(cccc3c1O)C(=O)N(c1ccccc1)C2=O | inconclusive: 8.21% |

| SMILES | inhibition |
| --- | --- |
| COc1ccccc1NS(=O)(=O)c1cccc(NC(=O)Nc2cccc(Cl)c2)c1 | inconclusive: 6.71% |
| O=S(=O)(Nn1c(O)c(C=C2N=c3ccccc3=N2)sc1=S)c1ccccc1 | inconclusive: 9.53% |
| N#C/C(=C\c1cccc(O)c1)C(=O)N1CCCCC1 | inactive: -0.772% |
| O=C(Nc1ccccc1)c1cc(C2CCCCN2C(=O)c2cccs2)on1 (stereo not given) | inactive: -2.36% |
| O=C(c1ccccc1)N1CCN(C(=O)c2ccc3c(c2)OCCO3)CC1 | inactive: -0.748% |
| OC1CCN(C(=S)Nc2ccc(Nc3ccccc3)cc2)CC1 | inconclusive: 11.2% |
| COc1ccc(C2=CC3=C(Br)C(=O)C(C)(OC(=O)c4ccco4)C(=O)C3=CO2)cc1 (stereo not given) | active: 10.2% |
| CCCOC(=O)c1ccc(NC(=O)c2cc(OC)c(OC)c(OC)c2Br)cc1 | active: 12.5% |
| COc1cccc2c1C(=O)c1c(O)c3c(c(O)c1C2=O)CC(O)(C(=O)CO)CC3OC1CC(N(C)C)C(O)C(C)O1 (stereo not given) | active: 64.6% |
| O=C(Oc1ccc(OC(=O)c2ccncc2)cc1)c1ccncc1 | inactive: -2.01% |
| O=C(NCc1ccc(OC(F)(F)F)cc1)C1CC(c2ccc(C(F)(F)F)cc2)=NO1 (stereo not given) | inactive: -2.6% |
| O=[N+]([O-])c1cccc(/C=N\N=C2c3ccccc3-c3ccccc32)c1O | inactive: -2.38% |
| COc1ccc(C(=O)Cn2nnc(-c3ccccc3F)n2)cc1 | inconclusive: 7.56% |
| O=C(NCc1ccc(Cl)cc1)c1ccc(CNc2c(N3CCOCC3)c(=O)c2=O)cc1 | inactive: -1.39% |
| Cc1c(C(=O)C(=O)N2c3ccccc3CC2C)c2ccccc2n1C (stereo not given) | inconclusive: 4.86% |
| CC1=CC(C)C(/C=N/n2cnnc2)C(C)C1 (stereo not given) | inactive: -0.855% |
| CC(Oc1ccc(Cl)cc1Cl)c1nc(-c2ccc(NC(=O)c3ccco3)cc2)no1 (stereo not given) | inconclusive: 5.66% |
| CSc1ccccc1-c1n[nH]c(=S)o1 | inactive: -2.79% |
| COc1ccc(N(CC(=O)NC2CCCCC2)C(=O)CCC(=O)Nc2nc(C)cs2)cc1 | inconclusive: 7.4% |
| O=C(c1cc(COc2ccc3c(c2)CCCC3)on1)N1CCCC1 | inconclusive: 4.56% |
| O=C(NCCO)C(=O)c1c(-c2ccc(Cl)cc2)cc2ccccn12 | inactive: -3.95% |
| O=C(O)c1ccc2c(c1)C(=O)/C(=C\c1ccco1)C2=O | inconclusive: 7.6% |

| SMILES | inhibition |
| --- | --- |
| Cc1cc(OC(C)C(=O)NCC2CCC(C(=O)O)CC2)c2c3c(c(=O)oc2c1)CCC3 (stereo not given) | inactive: -0.135% |
| O=c1cc(CN2CCc3ccccc32)c2ccc(O)cc2o1 | inconclusive: 4.69% |
| OCCN1CCN(c2ncnc3c2ncn3[C@H]2CN(Cc3ccncc3)C[C@@H](CO)O2)CC1 | inconclusive: 4.12% |
| Cc1cc2nc3ccc(N(C)C)cc3nc2cc1N | inconclusive: 8.4% |
| N#C/C(C(=O)Nc1ccc(Cl)cc1)=C(/S)Nc1ccccc1 | inconclusive: 9.64% |
| N#CC(C#N)=C(N)/C(C#N)=C/c1cc(O)c(O)c(O)c1 | active: 12.7% |
| CCc1cccc2c(C(=O)CSc3nncn3-c3ccc(OC)cc3)c[nH]c12 | active: 13.7% |
| CCCCCCCCCCCCC/C=C/[C@@H](O)[C@@H](N)CO | active: 33.1% |
| COc1cc(/C=C2\C(=O)NN(c3ccc(C)cc3)C2=O)cc([N+](=O)[O-])c1O | inconclusive: 6.45% |
| COc1ccc(CC(=O)OCC(=O)NC(=O)NC23CC4CC(CC(C4)C2)C3)cc1 | inconclusive: 8.42% |
| CCN1CCN(Cc2ccc(NC(=O)c3cc(NC(=O)c4cc(-c5ccc(OC)cc5)n[nH]4)cc(OC)c3)cc2C(F)(F)F)CC1 | active: 66.7% |
| COCCNC(=O)C1(C)CCN(C(=O)/C=C/c2ccccc2)C1 (stereo not given) | inactive: -1.5% |
| COC(=O)c1c(C#N)c(N)nc2c1CCC2 | inactive: -1.31% |
| C=CCOc1ccc(/C=C2\SC(=S)N(NS(=O)(=O)c3ccccc3)C2=O)cc1 | active: 12% |
| CCOc1cc([N+](=O)[O-])cc(/C=C2/NC(=O)N(Cc3ccccc3F)C2=O)c1O | inconclusive: 9.5% |
| Cc1ccc(-c2nn(-c3ccccc3)cc2/C=C2\SC(=S)N(CCCCCC(=O)O)C2=O)o1 | inconclusive: 7.61% |
| CC1(C)CNC(=O)CC(C)(C)N1O | inconclusive: 29.5% |
| CC(C(=O)Nc1ccc(O)c(C(=O)O)c1)N1C(=O)/C(=C/c2cccs2)SC1=S (stereo not given) | inconclusive: 10% |
| COc1cc(/C=C2\CC/C(=C\c3cc(OC)c(O)c(OC)c3)C2=O)cc(OC)c1O | inconclusive: 4.91% |
